Results taken from PubChem BioAssay AID360 (National Center for Advancing Translational Sciences (NCATS), 2006).
About 550 (1.1%) of roughly 48,000 compounds were called active. Inconclusive results (about 4%) are left out. No stated cut-off is given here; in the data, active means potency below about 15 µM; inconclusive means mostly about 16 µM to 33 µM; inactive means weaker than that. The list shows a part of the results.

The compounds below were run against Lysosomal acid glucosylceramidase (Homo sapiens) (UniProt P04062) (assay: Glucocerebrosidase). Details: purified enzyme, resorufin glucoside fluorescence (screen aimed at inhibitors), 20 min; series mostly up to 77 µM.
How it was run: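 Compounds titrated against 0.2 nM normal enzyme, 30 uM resorufin beta-D-glucopyranoside substrate, citrate/phosphate buffer with taurocholate and tween-20, pH 5.9. Reaction ran 20 min at room temperature; fluorescence (Ex 548/Em 600) gave AC50.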
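Further: the screen sought inhibitors.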
Potency means the concentration at half of the fitted maximal effect.

UniProt P04062, sequence (P04062 whole entry, looked up): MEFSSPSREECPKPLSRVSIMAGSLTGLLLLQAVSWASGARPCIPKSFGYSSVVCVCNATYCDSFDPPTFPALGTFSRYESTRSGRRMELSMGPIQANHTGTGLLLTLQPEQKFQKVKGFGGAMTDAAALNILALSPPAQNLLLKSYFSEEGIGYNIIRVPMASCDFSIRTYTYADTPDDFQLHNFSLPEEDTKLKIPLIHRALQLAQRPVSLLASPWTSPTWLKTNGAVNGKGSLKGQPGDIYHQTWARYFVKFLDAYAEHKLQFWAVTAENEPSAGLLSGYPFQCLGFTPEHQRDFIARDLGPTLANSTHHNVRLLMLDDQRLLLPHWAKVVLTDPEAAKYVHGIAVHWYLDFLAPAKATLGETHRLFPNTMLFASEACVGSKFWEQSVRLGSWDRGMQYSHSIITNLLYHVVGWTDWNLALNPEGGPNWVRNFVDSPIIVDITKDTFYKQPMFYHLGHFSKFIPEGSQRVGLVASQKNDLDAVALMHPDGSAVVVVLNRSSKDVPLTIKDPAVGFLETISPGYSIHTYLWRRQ

Potency, inactive:
COc1ccc(NC(=O)N(CCN2CCCC2)Cc2cc3cc(OC)c(OC)cc3[nH]c2=O)cc1 > 76.9 µM
O=C(c1ccccc1)c1ccccc1C(=O)N1CCCC1 > 76.9 µM
CCOC(=O)C1C(=O)CC(C)(O)C(C(=O)OCC)C1c1ccc(C)s1 (stereo not drawn) > 76.9 µM
COc1cccc(C(=O)N(Cc2cc3cc(C)ccc3[nH]c2=O)C(C)C)c1 > 76.9 µM
COc1ccc(NC(=O)c2cncc(Br)c2)c(S(=O)(=O)N2CCOCC2)c1 > 76.9 µM
CCOc1nc(-c2ccc(C)cc2)ccc1-c1noc(-c2cccnc2)n1 > 76.9 µM
CCC(=O)Nc1nnc(SCC(=O)Nc2ccc(F)cc2)s1 > 76.9 µM
Cc1ccccc1N(CC(=O)NCc1ccncc1)S(C)(=O)=O > 76.9 µM
CC1=C(C(N)=O)C(c2ccc(Cl)cc2Cl)n2ncnc2N1 (stereo not drawn) > 76.9 µM
Cc1ccc(-c2nnn(CC(=O)N3CCN(c4ccccc4)CC3)n2)o1 > 76.9 µM
Cc1ccc(CC23CN4CCN(CC(C4)C2O)C3)c(C)c1 (stereo not drawn) > 76.9 µM
CCOC(=O)N1CCC(Nc2ncnc3c2cnn3-c2ccc(Cl)cc2)CC1 > 76.9 µM
Cc1nnc(SCC(=O)Nc2ccc(Br)cn2)[nH]c1=O > 76.9 µM
CCOC(=O)CCCCC(=O)c1[nH]c(=O)[nH]c1Cn1cnc2ccccc21 > 76.9 µM
CSc1c(C#N)c(N)c(C#N)c2c1COC(C)(C)C2 > 76.9 µM
COc1ccc(S(=O)(=O)Nc2cc(C)ccc2OC)cc1C > 76.9 µM
O=c1c2[nH]c3ccc(F)cc3c2ncn1CCN1CCOCC1 > 76.9 µM
CCOC(=O)N1CCN(S(=O)(=O)c2ccc(F)c(C(=O)Nc3cc(C)cc(C)c3)c2)CC1 > 76.9 µM
c1ccc(-n2cccc2CNC2CCCCC2)cc1 > 76.9 µM
Cn1nc(-c2ccc(OCC(=O)NCC3CCCO3)cc2)c2ccccc2c1=O (stereo not drawn) > 76.9 µM
CCOC(=O)Cc1cc(=O)n2[nH]c(C)cc2n1 > 76.9 µM
CCOC(=O)CNc1nc(C(C)(C)C)nc2c1nnn2Cc1ccccc1Cl > 76.9 µM
N#Cc1ccc(CN2CCN(C(=O)c3ccccc3)CC2)c(Cl)c1 > 76.9 µM
COc1ccc(/C=N/c2nc3ccccc3n2C)cc1OC > 76.9 µM
Cn1c(CCN2CCCCCC2)nc2cc(NC(=O)Nc3ccccc3)ccc21 > 76.9 µM
O=c1nc(N(c2ccccc2)c2ccccc2)[nH]c(=O)[nH]1 > 76.9 µM
C/C(Cl)=C\Cn1c(Nc2ccc(C)cc2)nc2c1c(=O)n(C)c(=O)n2C > 76.9 µM
CN(Cc1ccccc1)C(=O)CSc1nnc(-c2ccco2)n1-c1ccccc1 > 76.9 µM
CCSc1nnc(CNc2ccc(F)cc2)n1CC1CCCO1 (stereo not drawn) > 76.9 µM
O=S(=O)(Cc1ccccc1Cl)Nc1ccccn1 > 76.9 µM
CCOC(=O)C1=C(C)Nc2nc3ccccc3n2C1c1ccncc1 (stereo not drawn) > 76.9 µM
Cc1nnc(SCC(N)=O)n1CC1CCCO1 (stereo not drawn) > 76.9 µM
N#Cc1cc2c(nc1SCC(=O)N1CCCCC1)CCCCC2 > 76.9 µM
O=C(NCCN1CCOCC1)C1CCC(=O)N1Cc1ccccc1Cl (stereo not drawn) > 76.9 µM
COCCn1nnnc1C(CC(C)C)N1CCN(C(=O)c2ccco2)CC1 (stereo not drawn) > 76.9 µM
OC1CC(c2ccco2)NC2(CCCCC2)C1 (stereo not drawn) > 76.9 µM
CCNC(=O)CC1C(=O)N(c2ccccc2)C(=O)N1Cc1ccc(OC)cc1 (stereo not drawn) > 76.9 µM
CCOC(=O)c1cnn(-c2nc(SC)nc3sc4c(c23)CCC4)c1N > 76.9 µM
CCc1ccc(-c2nc(CN3CCC(C(=O)N4CCN(c5ccccc5)CC4)CC3)c(C)o2)cc1 > 76.9 µM
Cc1cc(-c2ccccc2C(=O)NCc2ccccc2)on1 > 76.9 µM
COC(=O)c1cc(NC(=O)CC2SCCNC2=O)cc(C(=O)OC)c1 (stereo not drawn) > 76.9 µM
O=C(CSc1nnnn1-c1ccc2c(c1)CCC2)NCc1cccs1 > 76.9 µM
O=C1c2[nH]nc(-c3ccccc3O)c2C(c2ccc(F)cc2)N1CC1CCCO1 (stereo not drawn)
COc1ccc(C(CNC(=O)c2ccc(S(=O)(=O)N3CCOCC3)cc2)N2CCCCC2)cc1 (stereo not drawn) > 76.9 µM
CC1=C(C(=O)Nc2ccccn2)C(c2ccc(F)cc2)n2ncnc2N1 (stereo not drawn) > 76.9 µM
CCOC(=O)c1c(C)nc2sccn12 > 76.9 µM
O=C(c1n[nH]c(=O)c2ccccc12)N1CCOCC1 > 76.9 µM
CCOc1ccc(-c2nnn(CC(=O)Nc3cccc(OC)c3)n2)cc1OCC > 76.9 µM
CC(C)CNS(=O)(=O)c1ccc(CCC(=O)NCc2ccco2)cc1 > 76.9 µM
CCOC(=O)C1CCN(C(=O)CC(C)c2ccccc2)CC1 (stereo not drawn) > 76.9 µM
N#Cc1nc(-c2ccc(Cl)cc2)oc1NCCc1ccccn1 > 76.9 µM
O=C(NS(=O)(=O)c1ccccc1)c1ccccc1O > 76.9 µM
O=C(Nn1cnc2ccccc2c1=O)c1ccc(F)cc1Cl > 76.9 µM
COc1ccc(OC)c(N(CC(=O)Nc2ccccc2)S(C)(=O)=O)c1 > 76.9 µM
CCC(C)(C)NC(=O)C(c1cccn1C)N(Cc1ccc(C)cc1)C(=O)Cn1nnc2ccccc21 (stereo not drawn) > 76.9 µM
CN(C)C(=O)Nc1ccc(F)cc1F > 76.9 µM
CCOC(=O)C1CCN(c2cc(C)nc3cc(-c4cccc(F)c4)nn23)CC1 > 76.9 µM
CN(Cc1ccccc1)Cc1nc2c(c(=O)n(C)c(=O)n2C)n1CCCc1ccccc1 > 76.9 µM
